The values below come from the supplement of paper PMC4967469.

For orientation: IC50 means the midpoint of a concentration-inhibition curve.

A lower IC50 marks a more sensitive line; fits outside the tested doses are given as limits. The AUC spans the tested range (256-fold, ending at the top dose) of the same fit; values near 1 show little effect. Any top dose called inferred is not printed in the source and was worked back from the curve model.

Compound in the test: Cn1cc(C2=C(c3cn(C4CCN(Cc5ccccn5)CC4)c4ccccc34)C(=O)NC2=O)c2ccccc21 [LY317615]
Briefly: Viability of human cancer cell lines after 72 h of drug (GDSC screen). As to conditions: top dose inferred. As for the experimental part:
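Human cancer cell lines in 384-well plates, medium with 10% serum, drug for 72 h over a 256-fold dose range (nine 2-fold or five 4-fold steps up to the top dose). Adherent lines were fixed and stained with the nucleic acid dye Syto60, suspension lines read with resazurin; signal relative to control wells, capped at 0 and 100%. One two-parameter sigmoid per drug and line, fitted in a mixed model over all curves with the slope shared within a line.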
“G-MEL (melanoma, adherent, top dose 20 µM)”: the AUC came out at 0.896 and the half-maximal inhibitory concentration (IC50) was greater than 20 µM.
In the same order, the values of “OVCAR-8 (ovary, adherent, top dose 20 µM)” are 0.959 and greater than 20 µM.
For “MLMA (hairy cell leukaemia, semi-adherent, top dose 20 µM)”, the AUC was 0.794 and the half-maximal inhibitory concentration (IC50) is 9.33 µM.
The corresponding values for “D-336MG (glioma, adherent, top dose 20 µM)” are 0.832 and 18.1 µM.
In the case of “H3255 (lung adenocarcinoma, adherent, top dose 20 µM)”, the AUC came to 0.835 and the IC50 was found to be 16.9 µM.
The corresponding values for “Ca-Ski (cervix, adherent, top dose 20 µM)” are 0.515 and 1.38 µM.
In the same order, the values of “ML-1 (thyroid, adherent, top dose 20 µM)” are 0.907 and greater than 20 µM.
In the same order, the values of “NCI-H292 (lung adenocarcinoma, adherent, top dose 20 µM)” are 0.938 and greater than 20 µM.
Turning to “RD (rhabdomyosarcoma, adherent, top dose 20 µM)”, the AUC amounted to 0.945 and the IC50 was greater than 20 µM.
“KM-H2 (Hodgkin lymphoma, suspension, top dose 20 µM)”: the AUC was determined as 0.902 and the half-inhibitory concentration (IC50) was 19.2 µM.
The corresponding values for “OE21 (oesophagus, adherent, top dose 20 µM)” are 0.873 and greater than 20 µM.
The corresponding values for “786-0 (kidney, adherent, top dose 20 µM)” are 0.584 and 2.07 µM.
On to “COLO-668 (small cell lung carcinoma, adherent, top dose 20 µM)”, for which the AUC came out at 0.426 and the half-inhibitory concentration (IC50) was found to be 0.787 µM.
The corresponding values for “SK-MEL-24 (melanoma, adherent, top dose 20 µM)” are 0.9 and greater than 20 µM.
“HGC-27 (stomach, adherent, top dose 20 µM)”: the AUC stood at 0.942 and the half-maximal inhibitory concentration (IC50) is greater than 20 µM.
In the same order, the values of “RPMI-7951 (melanoma, adherent, top dose 20 µM)” are 0.793 and 8.86 µM.
In the same order, the values of “LU-65 (large cell lung carcinoma, suspension, top dose 20 µM)” are 0.817 and 13.9 µM.
For “MDA-MB-175-VII (breast, adherent, top dose 20 µM)”, the AUC was 0.717 and the IC50 stood at 5.51 µM.
In the same order, the values of “RC-K8 (B-cell lymphoma, suspension, top dose 20 µM)” are 0.95 and greater than 20 µM.
The corresponding values for “KP-3 (pancreas, adherent, top dose 20 µM)” are 0.561 and 1.89 µM.
For the cell line “647-V (bladder, adherent, top dose 20 µM)”, the AUC is 0.982 and the IC50 was greater than 20 µM.
The corresponding values for “LU-135 (small cell lung carcinoma, suspension, top dose 20 µM)” are 0.898 and 17.5 µM.
As to “MDST8 (large intestine, adherent, top dose 20 µM)”, the AUC was 0.936 and the IC50 was greater than 20 µM.
In the same order, the values of “CAL-54 (kidney, adherent, top dose 20 µM)” are 0.985 and greater than 20 µM.
In the same order, the values of A388 (skin, adherent, top dose 20 µM) are 0.966 and greater than 20 µM.
In the same order, the values of “OMC-1 (cervix, adherent, top dose 20 µM)” are 0.968 and greater than 20 µM.
Regarding ACHN (kidney, adherent, top dose 20 µM), the AUC was 0.878 and the IC50 is greater than 20 µM.
The corresponding values for “NB-4 (acute myeloid leukaemia, suspension, top dose 20 µM)” are 0.581 and 2 µM.
